Laboratory results published in publication PMC11829017, “Nucleotide-induced hyper-oligomerization inactivates transcription termination factor ρ” (Nature Communications, 2025).

B1: E. coli ρ S84C, untagged (enzyme)
chain: not shown
modifications: C84 crosslinked by BMOE
notes: transcription termination factor Rho (ρ), E. coli MG1655, S84C; also called S84C ρ; source: E. coli BL21 (DE3), purified (heparin, Sephacryl S-300)
B2: E. coli ρ G150D with a C-terminal octahistidine tag (enzyme)
chain: not shown
notes: transcription termination factor Rho (ρ), E. coli MG1655, connector substitution G150D; also called G150D•H8; G150D^F-ADP; source: E. coli BL21 (DE3), purified (HisTrap, heparin); for cryoEM E. coli RIL (BL21), with a final Superdex 200 step; not shown: His8 (H8), C-terminal, kept
B3: E. coli ρ with the sensor cysteines C84/C405 (X1), untagged (enzyme)
chain: not shown
modifications: cysteines crosslinked by BMOE (bismaleimidoethane) in the crosslinking assays and in the cryoEM sample
notes: also called WT^X1; ρ^X1; source: E. coli BL21 (DE3), purified (heparin, Sephacryl S-300)

How the values were obtained:
[1] = biological target: the molecule itself; test: cross-linking; BMOE (0.5 mM) crosslinking of 1 μM purified untagged ρ in PN23 buffer with ppGpp or pppGpp; LDS-PAGE
[2] = biological target: the molecule itself; test: cryo-EM structure; ρ G150D•H8 or G152D•H8 (2.9 mg/ml) incubated with 2.2 mM ADP-BeF for 5 min at room temperature; helical filaments, ADP bound

Row | Protein | stoichiometry N [1] | stoichiometry N [2]
1 | B1 | 12 | 
2 | B2 |  | > 18
3 | B3 | 12 | 
